{"source": "PubChem BioAssay AID2100", "about": "(National Center for Advancing Translational Sciences (NCATS), 2009)", "note": "Hit rate of the full screen: of about 300,000 compounds, about 1,200 (0.4%) were called active. The inconclusive results got no clear call from the source; some entries with a clear call stand among them for comparison. The call rests on the fitted dose curve; in most records, active means well fitted inhibition curve with a large enough effect; inconclusive means small, poorly fitted or top-dose-only effect, or another doubt; inactive means no such curve, though single readings can be large or run the other way. Potencies beside an inconclusive call are fits to weak or partial responses and may not hold up."}
{"biological_target": "Lysosomal alpha-glucosidase (Homo sapiens) (UniProt P10253)", "experiment": "qHTS Assay for Inhibitors and Activators of Human alpha-Glucosidase Cleavage of Glycogen; further: potency means the concentration at half of the fitted maximal effect;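 on activity change, negative = inhibition: 0% = full enzyme reaction and -100% = no-enzyme basal signal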", "conditions": "recombinant GAA, glycogen substrate, Amplex Red glucose oxidase fluorescence; activity change, negative = inhibition: at 76.4 µM (top of the series) unless noted", "procedure,_shortened": "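qHTS, 1536-well; enzyme 4 nM final; cpd up to 77 uM; substrate bovine liver glycogen 30 ug; 50 mM citrate/phosphate pH 5.0, 0.01% Tween-20; 37 C, 40 min; Amplex Red detection 45 min RT; Hill fit → AC50.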"}
{"molecule": "O=c1[nH][nH]c(-c2ccccc2O)c1C(C[N+](=O)[O-])c1cccc(Cl)c1", "note": "(stereo unspecified)", "Potency": "inconclusive: 12.6 µM [inhibitor, partial curve]"}
{"molecule": "Cc1[nH][nH]c(=O)c1C(c1ccc(-c2ccc(F)cc2)o1)c1c(C)[nH][nH]c1=O", "Potency": "inconclusive: 35.5 µM [inhibitor, partial curve]"}
{"molecule": "NC(=O)c1ccc[n+](CC(=O)c2ccccc2)c1", "activity change, negative = inhibition": "inactive: -5.39%"}
{"molecule": "COc1ccc(-c2noc(-c3ccc(NCc4ccc(C)cc4)c([N+](=O)[O-])c3)n2)cc1OC", "activity change, negative = inhibition": "inactive: 12.9% [at 76.3 µM]"}
{"molecule": "COc1ccc(-c2cc(Nc3ccccc3NC(=O)C(F)(F)F)n(CCC#N)n2)cc1", "Potency": "active: 35.5 µM"}
{"molecule": "CSc1ccccc1NC(=S)N/N=C/c1cccn1Cc1cccc(C)c1", "Potency": "inconclusive: 8.91 µM [inhibitor, full curve]"}
{"molecule": "CC1(C)Nc2ccc(O)cc2-c2c1ssc2=S", "Potency": "active: 39.8 µM"}
{"molecule": "CCOc1ccc(S(=O)(=O)Nc2ccccn2)c2ccccc12", "activity change, negative = inhibition": "inconclusive: 107% [activator]"}
{"molecule": "COc1cc(OC)cc(C(=O)Nc2cc3nn(-c4ccccc4)nc3cc2Cl)c1", "activity change, negative = inhibition": "inactive: 0.391% [at 76.3 µM]"}
{"molecule": "CCOc1ccc(NC(=O)N(CCN2CCOCC2)Cc2ccc3c(c2)CCCN3CC)cc1", "Potency": "active: 8.91 µM"}
{"molecule": "CCOc1cc(-c2nc3ccccn3c2NCC2CCCO2)ccc1O", "note": "(stereo unspecified)", "Potency": "active: 24.9 µM"}
{"molecule": "C(=C\\c1ccccc1)/C=N/Nc1nc2ccccc2[nH]1", "Potency": "inconclusive: 20 µM [inhibitor, single point]"}
{"molecule": "COc1cc(/C=C/C(=O)c2ccc(NS(=O)(=O)c3ccc(C)cc3)cc2)cc(OC)c1O", "Potency": "inconclusive: 25.1 µM [inhibitor, partial curve]"}
{"molecule": "CCOc1ccc(CCNC(=O)CCCc2nnc3n(CC(C)C)c(=O)c4sccc4n23)cc1", "activity change, negative = inhibition": "inactive: 3.18% [at 76.3 µM]"}
{"molecule": "c1ccc(Nc2nc(NCc3ccco3)c3ccccc3n2)cc1", "activity change, negative = inhibition": "inactive: -3.12%"}
{"molecule": "COc1cccc(/C=N/n2c(-c3n[nH]c4c3CCC4)n[nH]c2=S)c1O", "Potency": "inconclusive: 31.6 µM [inhibitor, single point]"}
{"molecule": "CCCc1noc(-c2ccc(N3CCCCC3)c([N+](=O)[O-])c2)n1", "Potency": "inconclusive: 11.2 µM [inhibitor, single point]"}
{"molecule": "C1CCCCCC(=NNc2nn[nH]n2)CCCCC1", "Potency": "inconclusive: 25.1 µM [inhibitor, single point]"}
{"molecule": "Nc1c(NCCN2CCCCC2)c2ccccc2oc1=O", "Potency": "inconclusive: 25.1 µM [activator, partial curve]"}
{"molecule": "CCOC(=O)NC(Nc1sc2c(c1C(N)=O)CCCC2)(C(=O)OCC)C(F)(F)F", "note": "(stereo unspecified)", "Potency": "inconclusive: 15.7 µM [inhibitor, partial curve]"}
{"molecule": "O=C(O)CCC(=O)NNc1ncnc2ccccc12", "Potency": "inconclusive: 7.94 µM [inhibitor, partial curve]"}
{"molecule": "Cc1nc(N)sc1-c1csc(Nc2ccc(S(N)(=O)=O)cc2)n1", "Potency": "inconclusive: 7.08 µM [inhibitor, single point]"}
{"molecule": "CCS(=O)(=O)N1CCc2cc(C(=O)N3CCN(c4cccc(C(F)(F)F)c4)CC3)ccc21", "Potency": "inconclusive: 15.8 µM [inhibitor, partial curve]"}
{"molecule": "Cc1ccccc1CSc1cn(CCNC(=O)c2cccs2)c2ccccc12", "Potency": "inconclusive: 3.98 µM [inhibitor, partial curve]"}
{"molecule": "COc1ccccc1NC(=S)NNC(=O)c1nn(C)c(C)c1Br", "Potency": "inconclusive: 50.1 µM [inhibitor, single point]"}
{"molecule": "CCN1CCc2c(sc(NC(=S)NC(=O)c3ccccc3)c2C#N)C1", "Potency": "inconclusive: 28.2 µM [inhibitor, single point]"}
{"molecule": "Cc1c(CNCc2ccc(Cl)cc2)c(C(=O)O)c(C)n1Cc1ccc(F)cc1", "activity change, negative = inhibition": "inactive: -13.3% [at 76.3 µM]"}
{"molecule": "O=C(NCc1cccs1)Nc1cccs1", "Potency": "active: 3.95 µM"}
{"molecule": "COC(=O)CSc1cc([N+](=O)[O-])ccc1NC(=O)OC", "activity change, negative = inhibition": "inactive: 5.39%"}
{"molecule": "COc1ccc(/C=N/NC(=S)Nc2cccc(C(=O)O)c2)cc1", "Potency": "inconclusive: 11.1 µM [inhibitor, partial curve]"}
{"molecule": "CCOc1cc(C2C(C(=O)c3ccc(C)o3)=C(O)C(=O)N2CCc2ccccc2)ccc1O", "note": "(stereo unspecified)", "Potency": "inconclusive: 31.4 µM [inhibitor, single point]"}
{"molecule": "CCC1=C([N+](=O)[O-])C(c2ccc3c(c2)OCO3)NC(=O)N1", "note": "(stereo unspecified)", "Potency": "inconclusive: 39.8 µM [inhibitor, partial curve]"}
{"molecule": "CC1(C)CC(=O)C(C(C2=C(O)CC(C)(C)CC2=O)c2cccc(O)c2)C(=O)C1", "note": "(stereo unspecified)", "Potency": "inconclusive: 22.2 µM [inhibitor, single point]"}
{"molecule": "C(/CCc1ccccc1)=N\\Nc1nc2ccccc2[nH]1", "Potency": "inconclusive: 39.5 µM [inhibitor, single point]"}
{"molecule": "O=C(O)C(Cc1ccccc1)N1C(=O)c2ccccc2C1=O", "note": "(stereo unspecified)", "Potency": "inconclusive: 31.6 µM [inhibitor, single point]"}
{"molecule": "Nc1nc(-c2cccs2)c(NC(=O)c2ccccc2)s1", "Potency": "active: 20 µM"}
{"molecule": "Cc1c(Nc2nc(-c3ccccc3)cs2)c(=O)n(-c2ccccc2)n1C", "Potency": "inconclusive: 14.1 µM [inhibitor, partial curve]"}
{"molecule": "COc1ccc(C(=O)N(Cc2ccco2)Cc2cccs2)c(O)c1", "activity change, negative = inhibition": "inactive: -8.76%"}
{"molecule": "Oc1ccc(/C=N/N2CCOCC2)c(O)c1O", "Potency": "inconclusive: 14.1 µM [inhibitor, partial curve]"}
{"molecule": "CC(Nc1oc(-c2ccco2)nc1C#N)c1ccccc1", "note": "(stereo unspecified)", "Potency": "inconclusive: 39.5 µM [inhibitor, single point]"}
{"molecule": "O=C(CCc1c[nH]c2ccccc12)N1CCN(c2ccc(O)cc2)CC1", "Potency": "inconclusive: 4.47 µM [inhibitor, full curve]"}
{"molecule": "CCOC(=O)C(=O)Cc1nc2ccccc2s1", "Potency": "inconclusive: 35.5 µM [inhibitor, single point]"}
{"molecule": "CC(=O)c1ccc2c(c1)C1C=CCC1C(C(=O)O)N2", "note": "(stereo unspecified)", "Potency": "inconclusive: 39.5 µM [inhibitor, single point]"}
{"molecule": "Cc1cc2c(n1-c1ccc(C(=O)NCCc3ccc(Cl)cc3)cc1)CCC(C)C2", "note": "(stereo unspecified)", "activity change, negative = inhibition": "inactive: 11.3% [at 76.3 µM]"}
{"molecule": "COc1cccc(/C=N/Nc2nc3ccccc3[nH]2)c1O", "Potency": "inconclusive: 24.9 µM [inhibitor, single point]"}
{"molecule": "O=C1CC(c2ccc(O)c(O)c2)Oc2c1ccc(O)c2O", "note": "(stereo unspecified)", "Potency": "active: 11.2 µM"}
{"molecule": "CCOc1cc(C2C(C(C)=O)=C(O)C(=O)N2CCc2c[nH]c3ccccc23)ccc1O", "note": "(stereo unspecified)", "Potency": "inconclusive: 4.43 µM [inhibitor, full curve]"}
{"molecule": "COc1ccccc1Nc1nc(-c2c(C)nc3ncccn23)cs1", "Potency": "inconclusive: 9.92 µM [inhibitor, partial curve]"}
{"molecule": "CC(=O)N1CCN(CC(=O)Nc2cc([N+](=O)[O-])ccc2Cl)CC1", "activity change, negative = inhibition": "inactive: -0.0711%"}
{"molecule": "COc1ccc(-c2nc(=S)[nH][nH]2)cc1", "Potency": "inconclusive: 25.1 µM [inhibitor, partial curve]"}
{"molecule": "CN(C)Cc1cc(O)c(CN(C)C)cc1O", "Potency": "inconclusive: 28.2 µM [activator, partial curve]"}
{"molecule": "Cc1nn(C)cc1C1Nc2ccccc2C(=O)N1O", "note": "(stereo unspecified)", "Potency": "inconclusive: 14.1 µM [inhibitor, partial curve]"}
{"molecule": "CCOc1cc(/C=C2\\C(=O)N(c3cccc(C(F)(F)F)c3)C(=O)c3ccccc32)ccc1O", "Potency": "inconclusive: 39.8 µM [inhibitor, single point]"}
{"molecule": "Cc1cccc(N(CC(O)Cn2c3ccccc3c3ccccc32)S(=O)(=O)c2ccc(F)cc2)c1", "note": "(stereo unspecified)", "activity change, negative = inhibition": "inactive: 4.43% [at 76.3 µM]"}
{"molecule": "O=C(NC1CC1)C1=C[C@@H](c2csc3ccccc23)C[C@@H](OCCCCO)O1", "activity change, negative = inhibition": "inactive: -5.47%"}
{"molecule": "CCOC(=O)N1CCN(C(=O)CCCn2nc(C)c3sc4ccccc4c3c2=O)CC1", "activity change, negative = inhibition": "inconclusive: 33.8% [activator]"}
{"molecule": "COc1ccc(C(=O)NCCn2cc(SCC(=O)N3CCOCC3)c3ccccc32)cc1", "activity change, negative = inhibition": "inactive: -4.41%"}
{"molecule": "COc1ccc(CCNCc2ccccc2N2CCCC2)cc1", "Potency": "inconclusive: 5.62 µM [inhibitor, single point]"}
{"molecule": "COc1cc(/C=C2/NC(=O)N(Cc3ccccc3F)C2=O)cc(OC)c1O", "Potency": "inconclusive: 12.6 µM [inhibitor, partial curve]"}
{"molecule": "Cc1ccc2nc(NCc3ccccc3)c(C#N)cc2c1", "Potency": "inconclusive: 39.5 µM [activator, single point]"}
{"molecule": "Cc1ccc(NCc2ccc(Cl)nc2)c(NCc2ccc(Cl)nc2)c1", "Potency": "inconclusive: 6.31 µM [inhibitor, single point]"}
{"molecule": "CCOC(=O)CSc1n[nH]c(=S)s1", "Potency": "inconclusive: 50.1 µM [inhibitor, single point]"}
{"molecule": "Oc1[nH]c2ccccc2c1/C=N/c1nccs1", "Potency": "inconclusive: 12.5 µM [inhibitor, partial curve]"}
{"molecule": "Fc1ccccc1-c1nc(NCc2ccco2)c2ccccc2n1", "activity change, negative = inhibition": "inactive: -14.7%"}
{"molecule": "Cc1cccc(N2CCN(C(=S)Nc3ccc4nc(N5CCN(C)CC5)cc(C)c4c3)CC2C)c1", "note": "(stereo unspecified)", "Potency": "inconclusive: 28.2 µM [inhibitor, partial curve]"}
{"molecule": "COc1ccc(N2C(=O)[C@@H]3[C@H](C2=O)[C@H](C(=O)c2ccc(OC(C)=O)cc2)N2N=CC=C[C@@H]32)cc1", "activity change, negative = inhibition": "inactive: -4.06%"}
{"molecule": "COc1cc(/C=C2\\Oc3cc(O)ccc3C2=O)ccc1O", "Potency": "inconclusive: 50.1 µM [inhibitor, single point]"}
{"molecule": "CCN1CCSc2ccc(C(=O)NCc3ccccc3F)cc21", "Potency": "inconclusive: 31.6 µM [inhibitor, single point]"}
{"molecule": "NC(=O)c1c(NC(=S)Nc2ccccc2)sc2c1CCCC2", "Potency": "inconclusive: 11.2 µM [inhibitor, single point]"}
{"molecule": "COc1ccccc1N1CCN(S(=O)(=O)c2cc3c(cc2C)NC(=O)CO3)CC1", "activity change, negative = inhibition": "inactive: 7.15% [at 76.3 µM]"}
{"molecule": "CC(/C=C/c1ccc(O)cc1)=N/O", "Potency": "inconclusive: 35.5 µM [inhibitor, partial curve]"}
